Test results as given in US10730848B2 (priority 2013, dated 2020).

Settings: assay concentrations

Row | Compound | solubility (in words)
1 | Cc1cccc(C)c1NC(=S)N/N=C/c1ccc(Br)cc1F [Compound 19b, N^1-(4-BROMO-2-FLUOROBENZYLIDENE)-N^4-(2,6-DIMETHYLPHENYL)THIOSEMICARBAZONE] | poorly soluble at assay concentrations
2 | Cc1cccc(C)c1NC(=S)N/N=C/c1c(F)cc(Br)cc1F [Compound 19c, N^1-(4-BROMO-2,6-DIFLUOROBENZYLIDENE)-N^4-(2,6-DIMETHYLPHENYL)THIOSEMICARBAZONE] | poorly soluble at assay concentrations
3 | Cc1cccc(C)c1/N=C(\N)N/N=C/c1ccc(Br)cc1 [Compound 22, 2-(4-BROMOBENZYLIDENE)-N′-(2,6-DIMETHYLPHENYL)HYDRAZINECARBOXIMIDAMIDE] | significantly more soluble
